{"source": "patent US20190201542A1", "about": "“ANTI-DLL3 DRUG CONJUGATES FOR TREATING TUMORS AT RISK OF NEUROENDOCRINE TRANSITION” (ABBVIE STEMCENTRX LLC, priority 2016, published 2019)", "target": "T1, ASCL1 (Homo sapiens, UniProt P50553)", "T1 construct": "the synthetic DNA encoding the hASCL1 open reading frame was subcloned in-frame into the multiple cloning site; expressed in transfected cells; host or cells: HEK-293T, lentiviral transduction with pLMEGPA-hASCL1-NFlag", "T1 sequence (P50553 1-236)": "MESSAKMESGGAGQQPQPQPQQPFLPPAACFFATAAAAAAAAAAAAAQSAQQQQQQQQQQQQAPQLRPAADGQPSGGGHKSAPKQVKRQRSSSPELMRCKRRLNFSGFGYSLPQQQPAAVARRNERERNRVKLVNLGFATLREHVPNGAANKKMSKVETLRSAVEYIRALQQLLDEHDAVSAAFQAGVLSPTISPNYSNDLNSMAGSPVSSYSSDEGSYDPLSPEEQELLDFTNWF", "test": "ASCL1 immunohistochemistry on FFPE sections with anti-ASCL1 clone SC72.2", "type": "binding", "conditions": "antibody 10 μg/ml", "protocol": "IHC was performed essentially as follows. Planar sections of formalin fixed and paraffin embedded (FFPE) tissues were cut and mounted on glass microscope slides. After xylene de-paraffinization 5 μm sections were pre-treated with Antigen Retrieval Solution (Dako) for 20 mins. at 99° C., cooled to 75° C. and then treated with 0.3% hydrogen peroxide in PBS followed by Avidin/Biotin Blocking Solution (Vector Laboratories). FFPE slides were then blocked with 10% horse serum in 3% BSA in PBS buffer and incubated with a primary anti-ASCL1 antibody (clone SC72.2), diluted to 10 μg/ml in 3% BSA/PBS, for 30 mins. at room temperature. The FFPE slides were incubated with biotin-conjugated horse anti-mouse antibody (Vector Laboratories), diluted to 2.5 μg/ml in 3% BSA/PBS, for 30 mins. at room temperature followed by incubation in streptavidin-HRP (ABC Elite Kit; Vector Laboratories). Chromogenic detection was developed with 3,3′-diaminobenzidine (Thermo Scientific) for 5 mins. at room temperature and tissues were counterstained with Meyer's hematoxylin (IHC World), washed with alcohol and immersed in xylene. Sections were then viewed by brightfield microscopy and ASCL1 expression was noted.\nPDX tumors were stained by IHC (FIG. 12) and ASCL1 protein expression by IHC correlates with the expected ASCL1 mRNA expression based on microarray results."}
{"molecule": "SC72.2: murine anti-ASCL1 antibody, VL SEQ ID NO: 521, VH SEQ ID NO: 523 (antibody, listed as Mus musculus, V domains shown) VH: QVQLQQSGAELVRPGASVTLSCKASGYTFIDYEMHWVKQTPVHGLEWIGAIDPETGGTTYNQNFKGKATLTADKSSNTAYMELRSLTSGDSAVYYCSRGGLDYWGQGTTLTVSS VL: DVVMTQTPLTLSVTIGQPASISCKSSQSLLDSDGKTYLNWLLQRPGESPKLLIYLVSKLDSGVPDRFTGSGSGTDFTLKISRVEAEDLGVYYCLQATHFPQLTFGAGTKLELK", "values": [{"measurement": "ASCL1 expression detected by IHC", "setting": "293 cells engineered to express ASCL1 (293-ASCL1)", "result": "detected in the nucleus"}, {"measurement": "ASCL1 expression detected by IHC", "setting": "naïve 293 cells", "result": "not in naïve 293 cells"}]}
